# Results published in PubChem BioAssay AID1476 (National Center for Advancing Translational Sciences (NCATS), 2009).
# About 4,500 (2.2%) of roughly 200,000 compounds were called active. The shares of active, inactive and inconclusive entries below differ from those in the screen. Calls follow the shape of the dose curve; as a rule, active = well fitted inhibition curve with a large enough effect; inconclusive = small, poorly fitted or top-dose-only effect, or effect the other way; inactive = flat fitted curve, though single readings scatter. Where the call is inconclusive, the potency comes from a doubtful curve fit.
# Molecular target: Cruzipain (Trypanosoma cruzi) (UniProt P25779)
# Assay: qHTS Assay for Promiscuous and Specific Inhibitors of Cruzain (without detergent); also: nearly all actives have a fitted effect of over 40% in size;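 as to max response, negative = inhibition: plate controls were enzyme without inhibitor for no effect and buffer without enzyme for full effect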
# Settings: purified cruzain, Z-FR-AMC fluorescence, no detergent
# Method in brief: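 Detergent-free condition (0.00005% Triton X-100) in acetate buffer pH 5.5 with DTT. 1.5 nM enzyme and compound were pre-mixed 15 min, then 2 uM Z-FR-AMC substrate added; reaction progress from fluorescence change between first and third reads (60 s).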
# Potency is read from the fitted curve at half-maximal effect; tags tell the direction and shape of the fitted curve.
# UniProt P25779, sequence (P25779 whole entry, looked up): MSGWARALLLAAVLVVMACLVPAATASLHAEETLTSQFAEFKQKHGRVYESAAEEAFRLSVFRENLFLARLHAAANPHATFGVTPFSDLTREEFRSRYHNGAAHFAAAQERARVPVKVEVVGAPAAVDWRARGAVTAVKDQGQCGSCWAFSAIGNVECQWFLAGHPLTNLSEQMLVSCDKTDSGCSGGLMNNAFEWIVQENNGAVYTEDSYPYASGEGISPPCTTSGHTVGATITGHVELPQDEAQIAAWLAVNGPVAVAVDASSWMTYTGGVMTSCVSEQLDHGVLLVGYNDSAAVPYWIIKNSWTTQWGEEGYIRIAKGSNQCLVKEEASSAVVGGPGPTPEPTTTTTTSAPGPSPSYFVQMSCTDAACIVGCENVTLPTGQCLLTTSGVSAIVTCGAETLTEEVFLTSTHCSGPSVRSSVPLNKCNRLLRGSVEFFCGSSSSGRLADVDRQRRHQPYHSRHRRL
Structure (SMILES),Potency,"max response, negative = inhibition"
Cc1ccc(-c2[nH]c(-c3ccc(C(=O)O)cc3)nc2-c2ccccc2)cc1,"inconclusive: 31.6 µM [activator, single point]",–
Nc1ccc(-c2nc3ccc(-c4nc5ccccc5o4)cc3[nH]2)cc1,"inconclusive: 39.8 µM [inhibitor, single point]",–
COc1cccc(/C=C2\SC(=O)N(CCC(=O)NNC(=O)c3ccccc3Cl)C2=O)c1,"inconclusive: 25.1 µM [inhibitor, single point]",–
O=[N+]([O-])c1ccc(Nc2nc(N/N=C\c3ccc4c(c3)OCO4)nc(N3CCCCC3)n2)cc1,active: 7.94 µM,–
COC(=O)c1c(NC(=O)CSc2nc3nc(C)cc(C)n3n2)sc(C)c1C,"inconclusive: 31.6 µM [activator, single point]",–
CCOc1ccc(-n2nc3ccc(NC(=O)c4ccc5c(c4)OCCO5)cc3n2)cc1,active: 12.6 µM,–
COc1cccc(-n2c(COc3ccccc3C)nnc2SCC(=O)O)c1,"inconclusive: 39.8 µM [activator, single point]",–
CCOc1ccc(/C=N/NC(=O)CC(=O)Nc2ccc(Cl)c(Cl)c2)cc1,"inconclusive: 39.8 µM [inhibitor, single point]",–
CN(Cc1ccccc1)C(=O)c1ccc2c(c1)N(Cc1ccccc1Cl)C(=O)c1ccccc1S2,"inconclusive: 39.8 µM [inhibitor, single point]",–
O=C(CN1C(=O)/C(=C\c2ccccc2F)SC1=S)Nc1nc2ccccc2s1,active: 7.94 µM,–
Cc1ccc(C(=O)NCc2ccc3c(c2)OCO3)cc1S(=O)(=O)N1CCOCC1,–,inactive: 9.49%
CCCc1ccc(-c2cc(C(=O)N/N=C/c3ccc([N+](=O)[O-])o3)c3ccccc3n2)cc1,active: 15.8 µM,–
CC[C@H]1C2=C3C(CC[C@H]4C(OCc5ccc(F)cc5C(F)(F)F)OC[C@](C)([C@@H]34)N(C(=O)OC(C)(C)C)C2)C(COC)C1COC (stereo partly drawn),–,inactive: -5.35%
COc1ccc(-c2c3c(=O)n(C)c(=O)n(C)c3c3n2-c2ccccc2NC3c2ccco2)cc1 (stereo not drawn),–,inactive: -8.04%
CCOc1ccc(CCNC(=O)Cn2nc(CC)n3c(cc4ccccc43)c2=O)cc1,–,inactive: -0.972%
CCc1ccccc1NC(=O)c1cnc(N2CCCCC2)c2ccccc12,"inconclusive: 31.6 µM [inhibitor, single point]",–
COc1cccc(Nc2nc(-c3sc(N)nc3C)cs2)c1,active: 12.6 µM,–
COc1ccc(CN(C(=O)CSc2nnc(-c3ccc(OC)c(OC)c3)o2)c2ccc(F)cc2)cc1,"inconclusive: 31.6 µM [activator, single point]",–
